For part of its entries the source gives two or more results. The other results are left out here. There may be further records. Values given together repeat one measurement across runs, samples, wells, individuals or studies. Counts like (3×) count equal records among those shown.
Test system: 282377-053-R-J1-PDC complex spheroids, viability
Experiment: Anticancer human tumor 282377-053-R-J1-PDC patient-derived colon adenocarcinoma cell line growth inhibition [GQUAD]
Details: for viability, T/C: stronger effect = lower value; for IC50: compound alone
Source text: DNA G-quadruplex Stabilizer Agents in Combinations in Complex Spheroids
A high-throughput screen of multi-cell type tumor spheroids was designed to identify active combinations of DNA G-quadruplex stabilizer agents and targeted small molecules. Complex spheroids include a stromal component modeled by human endothelial cells (HUVEC) and fibroblasts modeled by human mesenchymal stem cells (MSCs). The concentration ranges selected for each drug and investigational agent were based upon clinically achievable concentrations if the clinical Cmax of the agent was known.
Compounds. The drugs and investigational agents: pidnarulex (CX-5461; NSC782164), APTO-253 (NSC789042), BRACO-19 (NSC847499), peposertib (NSC802822), ceralasertib (NSC780249), elimusertib (NSC800525), camonsertib (NSC841442), AZD-1390 (NSC803789), olaparib (NSC753686), talazoparib (NSC767125), ART-558 (NSC835418), sotorasib (NSC818433), MRTX-1133 (NSC836407), SN-38 (NSC673596), topotecan (NSC609699), etoposide (NSC141540), doxorubicin (NSC123127), gemcitabine (NSC613327), 5-fluorouracil (NSC19893), paclitaxel (NSC125973), vemurafenib (NSC761431), panobinostat (NSC761190), R-306465 (JNJ-16241199; NSC773264), adavosertib (NSC754352), TP-3654 (NSC805149), carboplatin (NSC241240), KSQ-4279 (NSC840948), and staurosporine (NSC755774) were obtained from the National Cancer Institute (NCI) Developmental Therapeutics Program Chemical Repository (34). The FDA-approved anticancer drug set is available from the NCI Developmental Therapeutics Program. […] The stock solutions were prepared in dimethyl sulfoxide (DMSO, Sigma-Aldrich, St. Louis, MO, cat. D2650) at 800-fold the tested concentration and stored at -70 degrees C prior to their use. All drugs and investigational agents were tested over a range starting from a high concentration at or near the clinical Cmax and decreasing in half-log increments. If the clinical Cmax for an agent had not been determined, the highest concentration tested was 10 microM.
2.3 Cell Culture. All cells were maintained in an incubator at 37 degrees C and 5% CO2 with 95% humidity. The PDC lines were cultured according to standard operating procedures established by the NCI PDMR. All PDCs were thawed and cultured in Matrigel-coated flasks prepared with a working solution of 1X Ham's F-12 nutrient mix, without supplementation (Invitrogen, cat. 11765054), 100 U/mL penicillin-streptomycin (Invitrogen, cat. 15140122), and 2.5% Matrigel (Corning Inc., cat. 354248) for the first three passages. The 857933-349-R-J2-PDC line was cultured in 6C/Colon 1B media, which includes advanced DMEM/F-12 (Thermo Fisher Scientific, cat. 12634028), 10 mM HEPES (Thermo Fisher Scientific, cat. 15630080), 1X GlutaMAX supplement (Thermo Fisher Scientific, cat. 35050061), 0.1 mg/mL primocin (InvivoGen, cat. ant-pm-2), 10% defined fetal bovine serum, heat inactivated (HyClone Laboratories Inc., cat. SH30070.03HI), 50% L-WRN conditioned media (ATCC, cat. CRL-3276), 1.25 mM N-Acetyl-L-cysteine (Sigma-Aldrich, cat. A9165), 10 mM nicotinamide (Sigma-Aldrich, cat. N0636), 1X B-27 supplement (Thermo Fisher Scientific, cat. 17504044), 1X N-2 supplement (Thermo Fisher Scientific, cat. 17502048), 10 microM Y-27632 dihydrochloride (Tocris Bioscience, cat. 1254), and 50 ng/mL human EGF recombinant protein (Thermo Fisher Scientific, cat. PHG0311). The 485176-168-R4-J1-PDC line was cultured in Panc media, which includes all 6C/Colon 1B media components plus 100 ng/mL human FGF-10 (Thermo Fisher Scientific, cat. 100-26), 500 nM SB-431542 (Selleckchem, cat. S1067), and gastrin (Tocris, cat. 3006).
[…]
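Note: spheroids exposed to compounds for 7 days before readout.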
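Throughout, for viability, T/C: percent of vehicle DMSO control viability with 100% = untreated-like growth.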

**Q.** How did the viability, T/C (compound alone 0.316 µM) turn out when `Cc1[nH]c2ccccc2c1CCNCc1ccc(/C=C/C(=O)NO)cc1` was run?
**A.** 3.88%, 86.6%, 7.87%

**Q.** For `Cc1[nH]c2ccc(F)cc2c1-c1nc2c3cccnc3c3ncccc3c2[nH]1`, which viability, T/C (compound alone 0.1 µM) is on record?
**A.** 109 (2×), 103, 101 (3×), 92.6, 89, 91, 71.3, 96.8, 93.7%

**Q.** And the viability, T/C (compound alone 0.316 µM)?
**A.** 91.7, 110, 111 (2×), 101, 85.4, 94.2, 87.6, 122, 102, 97.6, 104%

**Q.** What about the viability, T/C (compound alone 1 µM) of the same compound?
**A.** 83.4, 119, 100, 104, 105, 101, 88.4, 110, 106, 102, 107, 109%

**Q.** What about the viability, T/C (compound alone 3.16 µM) of the same compound?
**A.** 62, 79.9, 90, 77.5, 86.1, 72, 66.8, 74.6, 106, 89.2, 75.6, 92.7%

**Q.** And the viability, T/C (compound alone 10 µM)?
**A.** 51.5 (2×), 57, 42.4, 43.7, 67.9, 58, 50.3 (2×), 46.3, 40.7, 77.2%

**Q.** With `O=C(NO)c1cnc(N2CCN(S(=O)(=O)c3ccc4ccccc4c3)CC2)nc1` as the compound, how does the IC50 read?
**A.** 412 nM, 41.4 nM, 491 nM

**Q.** With `Cc1cnc(CNC(=O)c2c(=O)c3ccc(N4CCCN(C)CC4)nc3n3c2sc2ccccc23)cn1` as the compound, how does the viability, T/C (compound alone 0.0316 µM) read?
**A.** 92.8, 91.4, 97.7, 94.8, 87.8, 93.6, 95.1, 96.4, 73, 102, 101, 85.1%

**Q.** What about the viability, T/C (compound alone 0.1 µM) of the same compound?
**A.** 109, 94.2, 118, 102, 79.3, 87.5, 111, 113, 106, 98.3, 99, 108%

**Q.** What about the viability, T/C (compound alone 0.316 µM) of the same compound?
**A.** 94.9, 88.8, 102, 88.3, 94.8, 88.6, 79.9, 71.6, 99.5, 92.6, 81.9, 90.1%

**Q.** What about the IC50 (run of 04/16/2024) of the same compound?
**A.** 1.71 µM, 2.34 µM, > 10 µM, 6.37 µM

**Q.** How did the IC50 turn out when `CC(=O)O[C@H]1C(=O)[C@@]2(C)[C@H]([C@H](OC(=O)c3ccccc3)[C@]3(O)C[C@H](OC(=O)[C@H](O)[C@@H](NC(=O)c4ccccc4)c4ccccc4)C(C)=C1C3(C)C)[C@]1(OC(C)=O)CO[C@@H]1C[C@@H]2O` was run?
**A.** < 31.6 nM, 538 nM, 44.1 nM

**Q.** And the viability, T/C (compound alone 10 µM)?
**A.** 22.2%, 0.16%, 26.6%

**Q.** For `COc1ncnc(C2CC2)c1-c1ncc2cnn(Cc3ccc(-c4nc(C(F)(F)F)cn4C(C)C)cc3)c2n1`, which viability, T/C (compound alone 10 µM) is on record?
**A.** 93.8%, 7.29%, 75.9%

**Q.** `CN(C)c1ccc(Nc2c3ccc(NC(=O)CCN4CCCC4)cc3nc3cc(NC(=O)CCN4CCCC4)ccc23)cc1` was tested. Which viability, T/C (compound alone 0.0316 µM) did it give?
**A.** 81.3, 82.5, 87.8, 85.2, 93.5, 86.8, 101, 91.7, 107, 104, 84.4, 85%

**Q.** And the viability, T/C (compound alone 0.316 µM)?
**A.** 95.8, 85.4, 103, 115, 86.3, 106, 93.5, 102, 98.9, 99.2, 101, 99.9%

**Q.** And the viability, T/C (compound alone 1 µM)?
**A.** 101 (2×), 98.1, 79.7, 96.5, 103, 98.9, 108, 93.5, 102, 97.3, 105%

**Q.** What about the viability, T/C (compound alone 10 µM) of the same compound?
**A.** 87.9, 96, 78.9, 98.1, 93.8, 88.4, 94.4, 91.2, 97.1, 107, 83.7, 81.5%

Reference: PubChem BioAssay AID2060501 (Molecular Pharmacology Branch, DTP, NCI, 2025)
